Experimental data taken from patent publication EP4524159A1, “ANTIBODY AND USE THEREOF” (priority 2022, dated 2023).

B1: 5B8-MMAE (conjugate)
VH: EVQLKESGGGLVQPGGSLRISCATSGLTFTHYHMSWVRQPPGKAPEWLAIIRNKAYGYTTDYSASVRGRFTISRDDSQSILYLQMNTLRAEDSATYYCVREGGYGYDGTFAYWGQGTTVTVSS
VL: EIVLTQSPASLAVSLGQRATISCRASESVDNYGISFMSWFQQKPGQPPKLLIYAASNQGSGVPDRFSGSGSGTDFSLNIHPMEEDDTAMYFCQQSKEVPRTFGGGTKLEIK
B2: 8C9-MMAE (conjugate)
VH: EVQLKESGGGLVQPGGSLRISCATSGLTFTHYHMSWVRQPPGKAPEWLAIIRNKAYGYTTDYSASVRGRFTISRDDSQSILYLQMNTLRPEDSATYYCVREGGYGYDGTFAYWGQGTTVTVSS
VL: DIQMTQSPASLAVSLGQRATISCRASESVDNYGISFMNWFQQKPGQPPKLLIYAASNQGSGVPDRFSGSGSGTDFSLNIHPMEEDDTAMYFCQQSKEVPRTFGGGTKLEIK
B3: 1CP-125-MMAE: humanized antibody 1CP-125 linked to vc-MMAE (conjugate)
heavy: QVQLVQSGAEVKKPGASVKVSCKASGYNFISYWLHWVRQAPGQGLEWMGGIYPGNTDTTYNQKFKGRVTMTADTSTSTVYMELSSLRSEDTAVYYCIRYDYDRGMDYWGQGTLVTVSS[left out - human IgG1 constant region]
light: DIQMTQSPSSLSASVGDRVTITCRASEDIYYRLAWYQQKPGKAPKLLISGATALETGVPSRFSGSGSGKDYTFTISSLQPEDIATYYCQHYWNIPWTFGQGTKVEIKRTVAAPSVFIFPPSDEQLKSGTASVVCLLNNFYPREAKVQWKVDNALQSGNSQESVTEQDSKDSTYSLSSTLTLSKADYEKHKVYACEVTHQGLSSPVTKSFNRGEC

Assays:
[1] = Drug : antibody ratio (DAR) of antibody-vc-MMAE conjugates by hydrophobic HPLC; settings: for DAR2 (%): share of DAR2 species; for DAR4 (%): share of DAR4 species; for DAR6 (%): share of DAR6 species; for DAR8 (%): share of DAR8 species
Protocol: The specific operation was to reduce each antibody and the control antibody CD27H10 (27H10 antibody in WO2018112334A1) with a 2-fold molar amount of […] (TECP) at 4 °C for 1 hour. A 7-fold molar amount of vcMMAE was then added for ligation at 4-25 °C for 1 h, and then the reaction mixture was dialyzed against 1 × PBS pH 8.0 and filtered for sterilization. Drug : antibody ratio (DAR) was detected by hydrophobic kurtosis with HLPC, and the molecular coupling results are shown in Table 14. Table 14 DAR values of antibody-drug conjugates
The humanized antibodies 1CP-125, 1CP-117 and 1CP-152 were subjected to linking to form ADC, and the linking process was the same as in example 18. Table 18 DAR values of antibody-drug conjugates

[2] = system: MCF7; test: In vitro killing by chimeric antibody-vc-MMAE conjugate (CellTiter-Glo, 120 h); assay type: cell-based; settings: MCF7 (120 h), cells that do not express CDCP1
Protocol: The inhibition activity of antibody on tumor cell growth was calculated by graphpad fitting based on the signal value and antibody concentration, and the results are shown in FIG. 5 and Table 15. Table 15 IC50 value of anti-CDCP1 chimeric antibody -vcMMAE conjugate on tumor cells

[3] = chimeric antibody-vc-MMAE conjugates, hydrophobic HPLC

| Molecule | DAR [1, 3] | DAR2 (%) ([1]; hydrophobic HPLC) | DAR4 (%) ([1]; hydrophobic HPLC) | DAR6 (%) ([1]; hydrophobic HPLC) | DAR8 (%) ([1]; hydrophobic HPLC) | IC50 [2] [nM] | DAR ([1]; humanized antibody-vc-MMAE conjugates, as printed in Table 19 (HCC1806)) | DAR ([1]; humanized antibody-vc-MMAE conjugates, as printed in Table 20 (HCT116)) |
| --- | --- | --- | --- | --- | --- | --- | --- | --- |
| B1 | 3.85 | 30.01 | 38.18 | 12.42 | 12.16 | – | – | – |
| B2 | 3.44 | 34.27 | 34.56 | 12.32 | 7.73 | > 200 | – | – |
| B3 | – | – | – | – | – | – | 4.3 | 4.3 |
